Some of the results follow. The energies were worked out here from pooled read counts, against the library average; single values are noisy.
These sequences were tested against T1, Pho4 (S. cerevisiae) (UniProt P07270) (assay: relative binding free energy (BET-seq); higher = weaker binding). Settings: reference: library average.
T1 sequence: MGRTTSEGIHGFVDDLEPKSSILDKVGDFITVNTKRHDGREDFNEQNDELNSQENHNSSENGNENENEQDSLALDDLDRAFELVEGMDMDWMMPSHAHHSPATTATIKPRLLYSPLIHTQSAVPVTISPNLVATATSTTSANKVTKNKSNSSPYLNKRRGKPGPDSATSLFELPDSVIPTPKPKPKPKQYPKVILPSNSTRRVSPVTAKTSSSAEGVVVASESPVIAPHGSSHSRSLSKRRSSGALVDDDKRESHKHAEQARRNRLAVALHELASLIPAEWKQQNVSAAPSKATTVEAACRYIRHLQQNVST
In the case of AACGGCACGTGTCGGG, the “relative binding free energy” value was -0.03 kcal/mol. With TTGCTCACGTGGATTT the “relative binding free energy” value was 0.19 kcal/mol. ATCCGCACGTGGGGTA was tested, and the “relative binding free energy” value was -0.11 kcal/mol. GGTCGCACGTGAGGTC was tested, and the “relative binding free energy” value was 0.21 kcal/mol. ATATGCACGTGGTAGG was tested, and the “relative binding free energy” value was -0.16 kcal/mol. With GGCAGCACGTGGGTTC the “relative binding free energy” value was -0.05 kcal/mol. With GTGTGCACGTGCCAGG the “relative binding free energy” value was -0.07 kcal/mol. For TTTTACACGTGGTGAT, the “relative binding free energy” value was 0.08 kcal/mol. With TTATGCACGTGATGAG the “relative binding free energy” value was 0.02 kcal/mol. With AAGGGCACGTGTGGAT the “relative binding free energy” value was -0.12 kcal/mol. GGTGGCACGTGGATAC was tested, and the “relative binding free energy” value was -0.1 kcal/mol. With TGGTTCACGTGTTTTC the “relative binding free energy” value was 0.35 kcal/mol. TGAAACACGTGCTGGT was tested, and the “relative binding free energy” value was -0.01 kcal/mol. With TTAAGCACGTGATTGA the “relative binding free energy” value was 0.12 kcal/mol. With TTGTTCACGTGTGAGT the “relative binding free energy” value was 0.33 kcal/mol. With AGGTACACGTGATATG the “relative binding free energy” value was 0.08 kcal/mol. GGTAACACGTGAGTAT was tested, and the “relative binding free energy” value was 0.24 kcal/mol. For TAGTGCACGTGCAGTG, the “relative binding free energy” value was -0.14 kcal/mol. With GGGAGCACGTGATTTG the “relative binding free energy” value was 0.13 kcal/mol. In the case of ATATGCACGTGAGCTT, the “relative binding free energy” value was 0.05 kcal/mol. With GGGAGCACGTGCGGTA the “relative binding free energy” value was -0.14 kcal/mol. In the case of CTTGTCACGTGAGGTG, the “relative binding free energy” value was 0.27 kcal/mol. For CTTCGCACGTGTTGTT, the “relative binding free energy” value was -0.11 kcal/mol. In the case of GTTTACACGTGTCGAT, the “relative binding free energy” value was 0.21 kcal/mol. CGTTACACGTGTATGT was tested, and the “relative binding free energy” value was 0.06 kcal/mol. TTAGTCACGTGTAATA was tested, and the “relative binding free energy” value was 0.11 kcal/mol. For TTCGGCACGTGATTAT, the “relative binding free energy” value was -0.2 kcal/mol. TCAATCACGTGATTTT was tested, and the “relative binding free energy” value was 0.3 kcal/mol. With CATTACACGTGGGATT the “relative binding free energy” value was 0.14 kcal/mol. For ATTGTCACGTGTGCAT, the “relative binding free energy” value was 0.13 kcal/mol. In the case of GCGGGCACGTGGCGGG, the “relative binding free energy” value was -0.14 kcal/mol. With TTACACACGTGTATTT the “relative binding free energy” value was -0.05 kcal/mol. For AGTTTCACGTGGTTGA, the “relative binding free energy” value was 0.12 kcal/mol. In the case of TTATTCACGTGTGTTG, the “relative binding free energy” value was 0.31 kcal/mol. AGGGGCACGTGATAAG was tested, and the “relative binding free energy” value was -0.04 kcal/mol. For GGTTCCACGTGCTTGG, the “relative binding free energy” value was 0.17 kcal/mol. With TTGAGCACGTGGCAGT the “relative binding free energy” value was -0.16 kcal/mol. With AGTAGCACGTGGGCAA the “relative binding free energy” value was -0.17 kcal/mol. GTATTCACGTGGTTCG was tested, and the “relative binding free energy” value was 0.24 kcal/mol. In the case of AGCGACACGTGTGAGT, the “relative binding free energy” value was 0.1 kcal/mol. With TAGGACACGTGGGTCA the “relative binding free energy” value was -0.13 kcal/mol. For GGTTGCACGTGGAAGA, the “relative binding free energy” value was 0.12 kcal/mol. GCTACCACGTGGGGGG was tested, and the “relative binding free energy” value was -0.23 kcal/mol. For GCGGACACGTGCTGGT, the “relative binding free energy” value was 0.11 kcal/mol. With AGTTACACGTGATTAG the “relative binding free energy” value was 0.13 kcal/mol. In the case of GATGTCACGTGGTTGA, the “relative binding free energy” value was 0.11 kcal/mol. For TTTCTCACGTGTGGCT, the “relative binding free energy” value was 0.23 kcal/mol. For TTTGACACGTGTTCAT, the “relative binding free energy” value was 0.05 kcal/mol. For TTGAGCACGTGGTGTC, the “relative binding free energy” value was -0.27 kcal/mol. For GGATTCACGTGGAGAG, the “relative binding free energy” value was 0.28 kcal/mol. For TTGGGCACGTGGTCCT, the “relative binding free energy” value was -0.17 kcal/mol. TTGAACACGTGCGATT was tested, and the “relative binding free energy” value was 0.16 kcal/mol. CGGTCCACGTGGTTGT was tested, and the “relative binding free energy” value was -0.12 kcal/mol. With GTGTGCACGTGTTGTG the “relative binding free energy” value was 0.01 kcal/mol. In the case of GTAGTCACGTGTATGG, the “relative binding free energy” value was 0.17 kcal/mol. In the case of TAAGGCACGTGGATGC, the “relative binding free energy” value was 0.04 kcal/mol. With CGTAGCACGTGGTATG the “relative binding free energy” value was -0.17 kcal/mol. For GGGTACACGTGTTACT, the “relative binding free energy” value was 0.19 kcal/mol. With TTAGCCACGTGGGAAG the “relative binding free energy” value was -0.1 kcal/mol. TATTGCACGTGTAACG was tested, and the “relative binding free energy” value was 0.16 kcal/mol. For ACGGTCACGTGGGAGT, the “relative binding free energy” value was 0.04 kcal/mol. With AAGTGCACGTGGGACT the “relative binding free energy” value was -0.03 kcal/mol. For TTTATCACGTGGTAAT, the “relative binding free energy” value was 0.01 kcal/mol. In the case of GTGTGCACGTGGCGAG, the “relative binding free energy” value was -0.1 kcal/mol. In the case of GAATGCACGTGTTAAG, the “relative binding free energy” value was -0.01 kcal/mol. CTGGCCACGTGGATGG was tested, and the “relative binding free energy” value was -0.08 kcal/mol. For TTAAGCACGTGGTGGA, the “relative binding free energy” value was -0.23 kcal/mol. TATTGCACGTGCCGTT was tested, and the “relative binding free energy” value was -0.11 kcal/mol. CAGTGCACGTGGTCGT was tested, and the “relative binding free energy” value was -0.18 kcal/mol. For GTTGACACGTGGAAGG, the “relative binding free energy” value was 0.14 kcal/mol. For CGTTCCACGTGTTTGT, the “relative binding free energy” value was 0.07 kcal/mol. In the case of GGGGACACGTGAATAA, the “relative binding free energy” value was 0.47 kcal/mol. For GTGCTCACGTGTGGTT, the “relative binding free energy” value was 0.26 kcal/mol. GGTATCACGTGTTTGA was tested, and the “relative binding free energy” value was 0.18 kcal/mol. GATTCCACGTGTGGTG was tested, and the “relative binding free energy” value was 0.01 kcal/mol. In the case of GCGGACACGTGGCGTG, the “relative binding free energy” value was -0.11 kcal/mol. With GGTGTCACGTGAAAAT the “relative binding free energy” value was 0.41 kcal/mol. With AATTGCACGTGTTGGG the “relative binding free energy” value was 0.01 kcal/mol. For TAGGGCACGTGGGAAC, the “relative binding free energy” value was -0.2 kcal/mol. In the case of TGTTTCACGTGCTAGG, the “relative binding free energy” value was 0.18 kcal/mol. For ATAGGCACGTGTCAAT, the “relative binding free energy” value was 0.01 kcal/mol. CGGTGCACGTGGACTG was tested, and the “relative binding free energy” value was -0.05 kcal/mol. With CGTGTCACGTGGCGTA the “relative binding free energy” value was -0.05 kcal/mol. For CGAGTCACGTGTAAGG, the “relative binding free energy” value was 0.13 kcal/mol. TTGCACACGTGTCTGG was tested, and the “relative binding free energy” value was 0.1 kcal/mol. In the case of GCAGGCACGTGGGGGT, the “relative binding free energy” value was -0.15 kcal/mol. With GGTTTCACGTGTGCGA the “relative binding free energy” value was 0.39 kcal/mol. For GGGAGCACGTGTTGGG, the “relative binding free energy” value was 0.01 kcal/mol. With GTACTCACGTGTAGTG the “relative binding free energy” value was 0.23 kcal/mol. With TGTGTCACGTGGCAAA the “relative binding free energy” value was 0.01 kcal/mol. For TAAGGCACGTGAGAGA, the “relative binding free energy” value was 0.04 kcal/mol. In the case of AGGTGCACGTGTAGAG, the “relative binding free energy” value was -0.09 kcal/mol. With GGTCACACGTGGAGGT the “relative binding free energy” value was 0.01 kcal/mol. With GCTGTCACGTGTAGAG the “relative binding free energy” value was 0.12 kcal/mol. With GTTGCCACGTGGTAGT the “relative binding free energy” value was -0.13 kcal/mol. For ATGATCACGTGAGATT, the “relative binding free energy” value was 0.24 kcal/mol. In the case of TGCCTCACGTGGATGG, the “relative binding free energy” value was 0.19 kcal/mol. GAGTGCACGTGTAGGT was tested, and the “relative binding free energy” value was -0.02 kcal/mol. In the case of CTTAACACGTGGTGGA, the “relative binding free energy” value was -0.09 kcal/mol. In the case of CGGGCCACGTGGCGTG, the “relative binding free energy” value was -0.24 kcal/mol. With TTTCTCACGTGAGGCG the “relative binding free energy” value was 0.32 kcal/mol. GTTATCACGTGTGGGA was tested, and the “relative binding free energy” value was 0.28 kcal/mol. For GAAGTCACGTGTGAGT, the “relative binding free energy” value was 0.19 kcal/mol. With AGGCACACGTGGGTTG the “relative binding free energy” value was -0.08 kcal/mol. GGCCTCACGTGAAGGG was tested, and the “relative binding free energy” value was 0.43 kcal/mol. In the case of TCAGTCACGTGGGAGA, the “relative binding free energy” value was 0.08 kcal/mol. With GAGGACACGTGGTCGG the “relative binding free energy” value was -0.13 kcal/mol. For TGTTCCACGTGATGTG, the “relative binding free energy” value was 0.19 kcal/mol. In the case of ATCTGCACGTGATTTT, the “relative binding free energy” value was 0.11 kcal/mol. In the case of GTATGCACGTGGTCGT, the “relative binding free energy” value was -0.17 kcal/mol. TGCGACACGTGTGGGA was tested, and the “relative binding free energy” value was 0.11 kcal/mol. In the case of GGGTCCACGTGTTCTT, the “relative binding free energy” value was 0.2 kcal/mol. For AAGTTCACGTGAGTGT, the “relative binding free energy” value was 0.35 kcal/mol. TACATCACGTGAGAGG was tested, and the “relative binding free energy” value was 0.38 kcal/mol. With ATTTACACGTGAAATG the “relative binding free energy” value was 0.25 kcal/mol.
